Laboratory results as given in article PMC12136788.
The list shows a part of the results.

B1: chr1:85267750:85267865:-|CDS|ENSG00000142867|unk|FALSE|unique (ssRNA)
RNA: GGGAGUUCUACAGUCCGACGAUCAGGAGAAUCCAGCACGACGCCCUUUUUUUCUACUAAUUCUUCUCUGAAUUUGCCUGUUCUAGAAGUAGGCAGAACUGAAAAUACCAUCUUCUCUUCAACUACACUUCCCAGACCUGGGGACAACAGAGGAUUGAGCAUCA
B2: chr1:206732925:206733026:+|3pUTR|ENSG00000162889|msi1|total|mutant (ssRNA)
RNA: GGGAGUUCUACAGUCCGACGAUCAAGUGAGCAAGGUGCUCUUGAACCUGUGCUCAUUUUGCAAUUUUAUCAGUAAUUUGACUCCGAGUUUUUACGAAACCUCUUUUGUUGUCCUUGCCCCACUCCUCUCCACCAGACGCCUUCCAACAGAGGAUUGAGCAUCA
B3: chr2:169127108:169128830:-|three_prime_utr|ENSG00000081479|control|control|control (ssRNA)
RNA: GGGAGUUCUACAGUCCGACGAUCCUGCAACAGAAGACACUUUUAAAGACACCGCAAAUCUUGUUAAAGAAGACUCUGAAGUAUAGCUAUACCAGCUAUUUAGGGAAUAAUUAGAAACACACUUUUGCACAUAUAUUUUUUACACAACAGAGGAUUGAGCAUCA
B4: chr1:35420597:35420698:+|3pUTR|ENSG00000146463|msi1|FALSE|bound_elsewhere (ssRNA)
RNA: GGGAGUUCUACAGUCCGACGAUCGUUCCUCUUAUUUUGUCUUUUGCACCAGUUUCUGGAGGCCCUUGUCAUUUCAAAAAGGAUAGUCUCUUUUCUUACUCUGGCAAACCUGUGAGUGAUUCCACAAAGAUACAGUAUUACUUACAACAGAGGAUUGAGCAUCA
B5: chr1:51271806:51271833:+|3pUTR|ENSG00000123091|msi1_unk|FALSE|overlapping (ssRNA)
RNA: GGGAGUUCUACAGUCCGACGAUCCAUUUGGGUCAAGGUUUUAUUAAAAGCUACAUUUUAUAACACUGGCACACACAAAAAAGUAGUUUUAAGCUUGUUUGCACAGUUCUUUUUUUCCAUUGGAAAUGGAAUUCAUUGCCUUAGCAACAGAGGAUUGAGCAUCA
B6: chr1:18907414:18907603:-|3pUTR|ENSG00000169991|msi1|total|mutant (ssRNA)
RNA: GGGAGUUCUACAGUCCGACGAUCCCUUGAUUUCCCUGAUAACUUGAUGUUCUUCCCUCCCUCGCCAGCCAACAACCGAGGCUCCGAGAUCUGUAAUUUCUCUGUGAGAAAGUCUGAAGGGGCCAGGCCUGGUCUCUGCUCCCUCAACAGAGGAUUGAGCAUCA

The binders below were run against MSI1 full-length (mouse, UniProt Q61474 1-362) (assay: nsRBNS (natural sequence RNA bind-n-seq); RBNS binding buffer (assumed for nsRBNS): 25 mM Tris pH 7.5, 150 mM KCl, 3 mM MgCl2, 0.01% Triton X-100, 500 ug/ml BSA, 20 U/ml SUPERase-In, 4 C; UNK is unkempt and MSI1 is Musashi-1; names of the RNAs are library labels; protein concentration not given here; high values mean tight binding).
Chain of UniProt Q61474 (Q61474 whole entry): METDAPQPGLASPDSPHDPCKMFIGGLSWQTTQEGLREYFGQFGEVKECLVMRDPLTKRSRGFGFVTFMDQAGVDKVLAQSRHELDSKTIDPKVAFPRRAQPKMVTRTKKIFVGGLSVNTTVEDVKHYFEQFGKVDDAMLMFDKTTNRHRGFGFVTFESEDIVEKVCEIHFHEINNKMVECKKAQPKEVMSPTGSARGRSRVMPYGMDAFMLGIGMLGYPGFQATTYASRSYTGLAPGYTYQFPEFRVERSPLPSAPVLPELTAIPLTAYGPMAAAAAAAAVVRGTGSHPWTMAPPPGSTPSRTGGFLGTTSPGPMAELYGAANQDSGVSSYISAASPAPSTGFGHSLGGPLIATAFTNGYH

First: B1
Second: B2
The binding signal of the first is higher: 0.414 enrichment R for the first, 0.306 enrichment R for the second.

Going from B3 to B4, the binding signal falls from 4.78 enrichment R to 0.701 enrichment R.

Compared with B5, B6 is lower in binding signal: 0.859 enrichment R for the first, 0.615 enrichment R for the second.
